The other results are listed elsewhere or left out. Values were computed here from the reads of four pooled replicates and scatter widely.
Target: T1, Pho4 (S. cerevisiae) (UniProt P07270)
T1 sequence: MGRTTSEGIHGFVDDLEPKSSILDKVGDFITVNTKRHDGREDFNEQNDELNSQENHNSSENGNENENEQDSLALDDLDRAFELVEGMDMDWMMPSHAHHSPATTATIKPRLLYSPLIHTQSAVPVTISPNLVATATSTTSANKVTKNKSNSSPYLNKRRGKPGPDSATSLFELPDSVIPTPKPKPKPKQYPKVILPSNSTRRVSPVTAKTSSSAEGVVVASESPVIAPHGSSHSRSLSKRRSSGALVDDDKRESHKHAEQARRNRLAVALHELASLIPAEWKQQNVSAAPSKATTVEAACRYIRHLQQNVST
Experiment: relative binding free energy (BET-seq); higher = weaker binding
Settings: reference: library average

Row | Sequence | relative binding free energy
1 | CGGGTCACGTGTCTGC | 0.29 kcal/mol
2 | GGAAGCACGTGGTATG | -0.07 kcal/mol
3 | TACAGCACGTGGGGGC | -0.3 kcal/mol
4 | ATTTCCACGTGATTGT | 0.04 kcal/mol
5 | GTGGCCACGTGAGAAG | 0.27 kcal/mol
6 | TCCTTCACGTGGTTTG | 0.18 kcal/mol
7 | ATGGTCACGTGTTTAG | 0.16 kcal/mol
8 | GGATGCACGTGTAGTG | -0.01 kcal/mol
9 | AGTAACACGTGTAGTA | -0.07 kcal/mol
10 | TGAGGCACGTGACTGA | -0.02 kcal/mol
11 | TGCTTCACGTGATTCG | 0.28 kcal/mol
12 | GTGGCCACGTGGTATT | -0.21 kcal/mol
13 | CGGGACACGTGGTGTA | 0.03 kcal/mol
14 | AGATGCACGTGATAAG | 0.26 kcal/mol
15 | GGTATCACGTGTATGG | 0.22 kcal/mol
16 | GGCTTCACGTGAGGCA | 0.56 kcal/mol
17 | TCAGGCACGTGTATGG | -0.09 kcal/mol
18 | TTAAACACGTGGTAGG | -0.09 kcal/mol
19 | AGTATCACGTGGGGCG | 0.05 kcal/mol
20 | CGGCGCACGTGGTTGT | -0.29 kcal/mol
21 | TAGGGCACGTGCAGTA | -0.16 kcal/mol
22 | GTGGCCACGTGGGGTA | -0.21 kcal/mol
23 | TATGGCACGTGTTACG | -0.25 kcal/mol

Row | Sequence | relative binding free energy
24 | TTGTACACGTGCAAGT | 0.2 kcal/mol
25 | AGTAGCACGTGGAGAT | -0.08 kcal/mol
26 | TTGTTCACGTGGTGCA | 0.11 kcal/mol
27 | ACGGGCACGTGGTGTA | -0.22 kcal/mol
28 | ATTGTCACGTGGGAAA | -0.1 kcal/mol
29 | ATGCGCACGTGTGGTT | -0.12 kcal/mol
30 | GCTTACACGTGTTGTC | 0.37 kcal/mol
31 | GTCTTCACGTGTTTAT | 0.41 kcal/mol
32 | AGGAACACGTGGAAGG | 0.16 kcal/mol
33 | TGGAGCACGTGGCGGG | -0.21 kcal/mol
34 | TGGGCCACGTGAGTGC | 0.05 kcal/mol
35 | TAGCTCACGTGGGTGG | 0.05 kcal/mol
36 | GATAGCACGTGGCGGT | -0.26 kcal/mol
37 | TTAATCACGTGAAATG | 0.36 kcal/mol
38 | GTGGACACGTGTCAGG | -0.11 kcal/mol
39 | TAATTCACGTGTTCGA | 0.3 kcal/mol
40 | TGGGGCACGTGTGCCG | -0.08 kcal/mol
41 | TCGTTCACGTGATGAG | 0.32 kcal/mol
42 | ATTGCCACGTGTAGAG | 0.01 kcal/mol
43 | GGGTGCACGTGTGCCG | -0.03 kcal/mol
44 | ACGTGCACGTGGTATG | -0.24 kcal/mol
45 | GTCATCACGTGGGCTG | 0.11 kcal/mol
46 | ACTGACACGTGTGGTG | -0.02 kcal/mol

Row | Sequence | relative binding free energy
47 | TAGAGCACGTGGTTAA | -0.16 kcal/mol
48 | TTGGGCACGTGATGCT | -0.13 kcal/mol
49 | TAAGGCACGTGTGTAT | -0.13 kcal/mol
50 | TCAGGCACGTGGGTAT | -0.09 kcal/mol
51 | TACTACACGTGTTTTG | 0.01 kcal/mol
52 | CGGATCACGTGTGTGG | 0.2 kcal/mol
53 | TGTTACACGTGATGTA | 0.26 kcal/mol
54 | GGTCGCACGTGTTGAA | -0.03 kcal/mol
55 | TTTGCCACGTGGCTGT | -0.2 kcal/mol
56 | TTTCGCACGTGAGGAA | 0.33 kcal/mol
57 | TGAGGCACGTGTTCTA | -0.18 kcal/mol
58 | AGGAGCACGTGTTAAT | 0.01 kcal/mol
59 | GAATTCACGTGTATTG | 0.19 kcal/mol
60 | ATAGTCACGTGATAAG | 0.17 kcal/mol
61 | TTCTACACGTGTAGTT | 0.32 kcal/mol
62 | TGGTACACGTGATGGT | 0.18 kcal/mol
63 | AGTGGCACGTGGTCTT | -0.15 kcal/mol
64 | GGTTGCACGTGGTACG | 0.01 kcal/mol
65 | GAATTCACGTGTATTT | 0.39 kcal/mol
66 | GGGTTCACGTGGTTCA | 0.34 kcal/mol
67 | TTTTACACGTGCTTGT | 0.05 kcal/mol
68 | CGTAGCACGTGTCTGG | -0.04 kcal/mol
69 | TGTATCACGTGAGGGA | 0.2 kcal/mol

Row | Sequence | relative binding free energy
70 | GTAAGCACGTGATGAT | 0.19 kcal/mol
71 | TTAAGCACGTGGTTAA | -0.23 kcal/mol
72 | GTGTTCACGTGTGCCA | 0.44 kcal/mol
73 | CTTAGCACGTGTATGT | -0.03 kcal/mol
74 | TGTTACACGTGGACGT | 0.14 kcal/mol
75 | GATGGCACGTGTTAGA | -0.01 kcal/mol
76 | GTAGACACGTGGTTAC | 0.2 kcal/mol
77 | CTTATCACGTGGTGGC | 0.12 kcal/mol
78 | AGGGGCACGTGCCATG | -0.13 kcal/mol
79 | CGAGTCACGTGGTTGA | 0.07 kcal/mol
80 | AGTTTCACGTGGGGGC | 0.31 kcal/mol
81 | GATCGCACGTGGGATG | -0.01 kcal/mol
82 | AAGTTCACGTGTGATG | 0.38 kcal/mol
83 | TCATGCACGTGCTGTT | -0.04 kcal/mol
84 | TGGTACACGTGTAAGT | 0.25 kcal/mol
85 | GTGAGCACGTGAAAGT | 0.27 kcal/mol
86 | AAGCGCACGTGTAGGT | -0.18 kcal/mol
87 | TGCTGCACGTGAGTGG | 0.09 kcal/mol
88 | AAGTGCACGTGTCGGG | -0.04 kcal/mol
89 | AAGAGCACGTGGGATT | -0.09 kcal/mol
90 | TTGGGCACGTGCTAAT | -0.09 kcal/mol
91 | TCTATCACGTGGGGGA | 0 kcal/mol
92 | GGACTCACGTGATGGA | 0.46 kcal/mol

Row | Sequence | relative binding free energy
93 | TGGCTCACGTGCTGTG | 0.18 kcal/mol
94 | AATGACACGTGTGAGT | 0.05 kcal/mol
95 | ATGCGCACGTGACGGG | -0.05 kcal/mol
96 | ATAAGCACGTGTTGAG | -0.03 kcal/mol
97 | TGAAGCACGTGGCGAT | 0 kcal/mol
98 | GATGTCACGTGGGACG | 0.19 kcal/mol
99 | TTTTTCACGTGCTGGA | 0.32 kcal/mol
100 | ATTTACACGTGGAAGG | 0.12 kcal/mol
101 | CGAGTCACGTGGCAGG | 0.05 kcal/mol
102 | GCGGTCACGTGGGTGG | 0.03 kcal/mol
103 | CAGCGCACGTGATGGG | 0.03 kcal/mol
104 | GGTGACACGTGCTTGT | -0.07 kcal/mol
105 | GGGTGCACGTGGCGTA | -0.03 kcal/mol
106 | AGATACACGTGGTGAT | -0.02 kcal/mol
107 | ACTCGCACGTGGTGGT | -0.19 kcal/mol
108 | TGGATCACGTGAAGAT | 0.32 kcal/mol
109 | GGGGTCACGTGTTGAA | 0.31 kcal/mol
110 | GGTTACACGTGTTGTT | 0.18 kcal/mol
111 | CGGGTCACGTGAGTTC | 0.41 kcal/mol
112 | TAGTACACGTGTGTCT | 0.05 kcal/mol
113 | ATTAGCACGTGTAAGT | -0.01 kcal/mol
114 | ATACTCACGTGATGTT | 0.37 kcal/mol
115 | ATTAACACGTGCGGTT | -0.05 kcal/mol
